Data published in PubChem BioAssay AID624173 (National Center for Advancing Translational Sciences (NCATS), 2012).
Among all 410,000 compounds or so, about 490 (0.12%) were called active. The inconclusive results got no clear call from the source; some entries with a clear call stand among them for comparison. Calls follow the shape of the dose curve; as a rule, active = well fitted inhibition curve with a large enough effect; inconclusive = small, poorly fitted or top-dose-only effect; inactive = flat fitted curve, though single readings scatter. Potencies beside an inconclusive call are fits to weak or partial responses and may not hold up.

molecular target: pyruvate kinase (Trypanosoma brucei) (UniProt Q57TT1); test: qHTS of Trypanosoma Brucei Inhibitors; conditions: TbPYK enzyme, Kinase-Glo Plus ATP luminescence, 45 min; series mostly up to 76.8 µM; activity, negative = inhibition: at the top concentration; also: nearly all actives have a fitted effect of over 50% in size
Method in brief: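 T. brucei PYK with substrate was exposed to pin-transferred compounds across a concentration series, then started with 130 uM ADP (final). After 45 min at room temperature, Kinase-Glo Plus luminescence was read, normalized and curve-fitted.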
% is scaled to controls: 0 for no effect and ±100 for the full control effect; potency is read from the fitted curve at half-maximal effect; tags tell the direction and shape of the fitted curve.

| Structure (SMILES) | Potency | activity, negative = inhibition |
| --- | --- | --- |
| S=c1[nH]nc(-c2cccnc2)n1/N=C/c1ccco1 | inconclusive: 25.1 µM [inhibitor, partial curve, poor fit] |  |
| COC(=O)CCCCCN1C(=O)NC(c2ccccc2)C(C(=O)OCc2ccccc2)=C1C (centres undefined) |  | inactive: 3.92% |
| Cc1ccc(NC(=O)c2cccc(S(=O)(=O)N3CCN(c4ccc(F)cc4)CC3)c2)nc1 |  | inactive: 2.95% |
| C=CCn1c(-c2ccncc2)n[nH]c1=S | inconclusive: 14.1 µM [inhibitor, partial curve, poor fit] |  |
| CC(C)c1ccc(C(=O)CC2(O)C(=O)N(CCc3ccccc3)c3ccc(Cl)cc32)cc1 (centres undefined) |  | inactive: 0.918% |
| O=c1cc(-c2ccc(O)cc2)oc2ccc3ccccc3c12 | inconclusive: 39.8 µM [inhibitor, single point] |  |
| CC(=O)Nc1ccc(S(=O)(=O)N2CCN(c3ccc(C)c(C)c3)CC2)cc1 | inconclusive: 50.1 µM [inhibitor, single point] |  |
| CNC(=O)CSc1nnc(-c2ccc(S(=O)(=O)N3CCCC3)cc2)n1-c1cccc(C)c1C | inconclusive: 28.2 µM [inhibitor, partial curve] |  |
| CCOC(=O)c1c(C)n(Cc2ccc(F)cc2)c2ccc(O)cc12 | inconclusive: 28.2 µM [inhibitor, partial curve] |  |
| O=C(NC(=S)Nc1ccc(NC(=O)c2cccs2)cc1)c1ccco1 |  | inactive: -21.6% |
| CC(=O)c1ccc(NC(=O)c2ccc3nc(-c4ccco4)c(-c4ccco4)nc3c2)cc1 | inconclusive: 22.4 µM [inhibitor, partial curve, poor fit] |  |
| Cc1[nH]c(=S)c(C#N)c(C)c1CC(=O)c1ccc(Br)cc1 | inconclusive: 2.51 µM [inhibitor, partial curve, poor fit] |  |
| Oc1ccc(-c2cn3c(n2)SCC3)cc1O | inconclusive: 22.4 µM [inhibitor, partial curve, poor fit] |  |
| Cc1ccc(-c2n[nH]c(=S)n2-c2ccccc2)cc1 | inconclusive: 3.55 µM [inhibitor, full curve, poor fit] |  |
| O=C(O)C1Cc2ccccc2N2CCCC12 (centres undefined) | inconclusive: 31.6 µM [inhibitor, partial curve, poor fit] |  |
| COc1ccc(NS(=O)(=O)c2ccc3c(c2)[C@H]2C=CC[C@H]2[C@@H](c2ccc(C(=O)O)cc2)N3)cc1 | inconclusive: 7.94 µM [inhibitor, partial curve] |  |
| C=CS(=O)(=O)c1c2cc(OC)ccc2nc2ccc(OC)cc12 | inconclusive: 22.4 µM [inhibitor, partial curve, poor fit] |  |
| Fc1cccc(C[n+]2csc3ccccc32)c1 | inconclusive: 39.8 µM [inhibitor, partial curve, poor fit] |  |
| COc1cccc(N2C(=O)NC(=O)/C(=C/c3ccc([N+](=O)[O-])s3)C2=O)c1 | inconclusive: 20 µM [inhibitor, partial curve] |  |
| CC(Sc1nc2cc([N+](=O)[O-])ccc2n1-c1ccc(F)cc1)C(=O)NCc1ccc2c(c1)OCO2 (centres undefined) | inconclusive: 39.8 µM [inhibitor, partial curve, poor fit] |  |

| Structure (SMILES) | Potency | activity, negative = inhibition |
| --- | --- | --- |
| Cn1cc(Cl)c(-c2n[nH]c(=S)n2-c2ccc(F)cc2)n1 | inconclusive: 7.94 µM [inhibitor, partial curve] |  |
| O=C(COC(=O)c1cc(S(=O)(=O)N2CCc3ccccc3C2)ccc1Cl)NCc1ccco1 | inconclusive: 39.8 µM [inhibitor, single point] |  |
| CCn1c2c(c(=O)n3ncc(C(=O)Nc4ccc(Cl)cc4C)c13)CN(Cc1ccc(OC)cc1)CC2 | inconclusive: 31.6 µM [inhibitor, single point] |  |
| CC1(C)CC(=O)c2sc(NC(=O)CCS(=O)(=O)c3ccccc3)nc2C1 |  | inactive: -3.28% |
| CC[C@H](C)C(=O)O[C@H]1CCC=C2C=C[C@H](C)[C@H](CC[C@@H]3C[C@@H](O)CC(=O)O3)[C@H]21 |  | inactive: -3.47% |
| CC(C)(C)OC(=O)NCc1n[nH]c(=S)n1C1CC1 | inconclusive: 28.2 µM [inhibitor, partial curve, poor fit] |  |
| O=C1CC(SC(=S)C2CCCC2=O)C(=O)N1 (centres undefined) | inconclusive: 28.2 µM [inhibitor, partial curve, poor fit] |  |
| O=C(O)c1cccc(C(=O)Cc2ccccc2)c1 | inconclusive: 22.4 µM [inhibitor, partial curve, poor fit] |  |
| COc1ccccc1-c1cnc2c(c1)C(=O)N([C@@H](C)CO)C[C@@H](C)[C@H](CN(C)C(=O)c1cccnc1)O2 | inconclusive: 39.8 µM [inhibitor, single point] |  |
| CN1C(=O)NC(=O)/C(=C/c2ccc([N+](=O)[O-])o2)C1=O | inconclusive: 28.2 µM [inhibitor, partial curve] |  |
| Cc1nc(N/N=C/c2ccccn2)sc1C | inconclusive: 31.6 µM [inhibitor, single point] |  |
| C=CCn1c(-c2csc(-c3ccc(OC)c(OC)c3)n2)n[nH]c1=S | inconclusive: 2.82 µM [inhibitor, full curve] |  |
| CCc1n[nH]c(=S)n1/N=C/c1cccc2ccccc12 | inconclusive: 1.58 µM [inhibitor, full curve] |  |
| Cc1ccc([N+](=O)[O-])cc1S(=O)(=O)Nc1ccc(O)c(Sc2ncn[nH]2)c1 | inconclusive: 28.2 µM [inhibitor, single point] |  |
| CC(C)Cn1c(-c2cccc(S(=O)(=O)N3CCOCC3)c2)n[nH]c1=S | inconclusive: 14.1 µM [inhibitor, partial curve] |  |
| O=C1NC(=S)S/C1=C\c1ccc(SCc2ccco2)o1 | inconclusive: 20 µM [inhibitor, partial curve, poor fit] |  |
| Cc1c(N=C2C=CC(=O)c3ccccc32)c(=O)n(-c2ccccc2)n1C | inconclusive: 28.2 µM [inhibitor, single point] |  |
| CCOC(=O)N1CCc2c(sc(NCc3cccc(F)c3)c2C(=O)Nc2ccc(OC)cc2)C1 | inconclusive: 5.62 µM [inhibitor, full curve] |  |
| Cn1c(=O)[nH]c(=O)c2c1[nH]c(=S)n2Cc1ccc(Cl)cc1 | active: 5.62 µM |  |
